Data reported in PMC1479839 (BMC Biology, 2006).

Biological target: T1, IL-4Rα extracellular domain (residues 1 to 210) with C182A and Q207C, biotinylated and immobilised (human, biotinylated via the free thiol group)
T1 construct: extracellular domain of the human IL-4 receptor alpha chain, residues 1 to 210; also called IL-4RαECD; IL4-RαECD; source: baculovirus infected Sf9 insect cell culture, purified
Assay: SPR; direct binding of IL-13 alone to IL-4RαECD; below detection limit; apparent
Conditions: both partners purified

- Kd: > 100 µM
B1: human interleukin 13 (wild type) (ligand)
chain: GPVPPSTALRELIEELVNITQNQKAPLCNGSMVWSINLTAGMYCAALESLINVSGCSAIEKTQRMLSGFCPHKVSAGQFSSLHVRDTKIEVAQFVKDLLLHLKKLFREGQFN
